# The campaign covered roughly 310,000 compounds. About 2,200 (0.71%) showed an effect of 50% or more. The effect is printed as a negative number. This is one part of the list.
# Biological target: human ether-à-go-go-related gene (hERG) potassium channel (human, UniProt Q12809)
# Experiment: primary screen, population patch clamp on CHO cells stably expressing hERG
# Chain of human ether-à-go-go-related gene (hERG) potassium channel (Q12809 whole entry, looked up): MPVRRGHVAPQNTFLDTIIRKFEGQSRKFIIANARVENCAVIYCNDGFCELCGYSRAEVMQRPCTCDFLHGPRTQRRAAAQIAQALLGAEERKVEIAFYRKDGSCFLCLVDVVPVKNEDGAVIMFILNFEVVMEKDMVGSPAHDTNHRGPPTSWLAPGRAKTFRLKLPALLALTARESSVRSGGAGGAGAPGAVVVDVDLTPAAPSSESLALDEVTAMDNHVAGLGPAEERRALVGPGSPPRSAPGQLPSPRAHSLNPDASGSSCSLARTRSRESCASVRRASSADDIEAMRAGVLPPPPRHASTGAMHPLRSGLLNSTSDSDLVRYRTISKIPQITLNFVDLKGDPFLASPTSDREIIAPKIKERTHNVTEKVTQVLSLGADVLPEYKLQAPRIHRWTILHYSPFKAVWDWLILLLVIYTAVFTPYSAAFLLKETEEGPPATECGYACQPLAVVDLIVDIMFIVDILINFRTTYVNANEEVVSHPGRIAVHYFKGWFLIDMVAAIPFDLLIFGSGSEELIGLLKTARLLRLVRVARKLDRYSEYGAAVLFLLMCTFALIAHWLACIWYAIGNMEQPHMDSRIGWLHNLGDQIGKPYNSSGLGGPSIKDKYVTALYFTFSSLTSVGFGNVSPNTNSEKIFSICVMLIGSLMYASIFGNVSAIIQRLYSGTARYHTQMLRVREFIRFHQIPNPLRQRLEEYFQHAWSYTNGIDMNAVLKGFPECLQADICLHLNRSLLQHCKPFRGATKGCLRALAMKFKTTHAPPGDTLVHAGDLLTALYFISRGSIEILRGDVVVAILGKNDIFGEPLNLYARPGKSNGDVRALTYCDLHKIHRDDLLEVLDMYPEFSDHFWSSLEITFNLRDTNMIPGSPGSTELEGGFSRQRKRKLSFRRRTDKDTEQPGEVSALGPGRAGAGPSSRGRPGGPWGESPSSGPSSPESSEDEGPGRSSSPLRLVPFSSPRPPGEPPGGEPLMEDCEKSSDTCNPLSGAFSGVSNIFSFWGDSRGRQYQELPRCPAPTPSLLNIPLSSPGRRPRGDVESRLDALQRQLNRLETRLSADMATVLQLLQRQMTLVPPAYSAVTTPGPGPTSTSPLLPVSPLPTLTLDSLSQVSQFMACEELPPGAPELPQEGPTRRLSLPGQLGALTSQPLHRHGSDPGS
row,SMILES,"hERG current change (%, negative = inhibition) at 1uM"
1,CC(C)OC(=O)C(CC(=O)O)N1CCOCC1 (stereo not drawn),12.1%
2,CCOC(=O)C1=C(CC)NC2=C(C(=O)CCC2)C1c1ccc(OC)c(OC)c1 (stereo not drawn),-0.785%
3,Cn1c(Cc2ccccc2)n[nH]c1=S,15.2%
4,O=C(NCCCn1ccnc1)c1ccc2nccnc2c1,11%
5,O=S1(=O)[C@H]2C[C@@H]3C=C[C@@]2(CN1Cc1cccc(C(F)(F)F)c1)O3,7.76%
6,CCOc1ccc2nc(N3CCOCC3)nc(C)c2c1,6.82%
7,Cc1cc(C)c2c(c1)-c1cc(C)nn1C(c1ccc3c(c1)OCO3)N2 (stereo not drawn),8.12%
8,CC(=O)NC1=NN(C(C)=O)C(C)(c2ccccc2)S1 (stereo not drawn),19.5%
9,COc1ccc(C(=O)COC(=O)CCN2C(=O)C3C4CCC(C4)C3C2=O)cc1 (stereo not drawn),5.64%
10,COc1cccc(NC(=O)CN(C)C(=O)Cc2ccc(Cl)cc2Cl)c1,14.8%
11,Cc1ccc(F)cc1NS(=O)(=O)c1ccc(Cl)s1,7.81%
12,O=C(CCc1nnc(Cc2cccc(C(F)(F)F)c2)o1)NCCc1ccccc1F,14.9%
13,COc1ccc(OC)c(CNC(=O)C2CCCN(C(=O)N(C)C)C2)c1 (stereo not drawn),10.5%
14,O=C(CCS(=O)(=O)c1ccccc1)Nc1nc2c(s1)CCCC2,7.84%
15,O=C(NCc1ccccc1Cl)C1CCCN(S(=O)(=O)c2cccc3nsnc23)C1 (stereo not drawn),-0.909%
16,CCOc1ccccc1/C=N/NC(=O)c1c(C)nc2ccc(Br)cn12,18.2%
17,Cc1cc(N2CCN(c3ccc(F)cc3)CC2)nc(-c2ccccc2)n1,-1.49%
18,CNC(=O)c1cc2c(cn1)[nH]c1ccccc12,30.5%
19,Cc1cccc(N2CC(=O)N(c3cccc(C)c3)CC2=O)c1,-2.56%
20,O=C1CCC(c2ccc3c(c2)CCC3)=NN1,14.2%
21,CCc1ccc(NC(=O)N2CCN(C(=O)C3CCCO3)CC2)cc1 (stereo not drawn),13%
22,N#C/C(=C\c1cccs1)C(=O)Nc1nccs1,6.72%
23,CCN(CC(=O)Nc1ccc(C)c(F)c1)CC(=O)NC(C)C,8.87%

row,SMILES,"hERG current change (%, negative = inhibition) at 1uM"
1,O=C(CCC(=O)N1CCN(S(=O)(=O)c2ccccc2)CC1)c1cccs1,-1.07%
2,COc1ccccc1C(c1nnnn1Cc1ccccc1)N1CCN(C2CCCC2)CC1.Cl (stereo not drawn),-5.39%
3,COc1ccc(Oc2c(C=O)c3ccccc3n2C)cc1,3.54%
4,CCc1ccc(NC(=O)CN2C(=O)CC(C)S(=O)(=O)c3ccccc32)cc1 (stereo not drawn),7.99%
5,NNC(=O)c1ncoc1-c1ccc(Cl)cc1,11.9%
6,CC1CCN(C(=O)CCCN2C(=O)c3cccnc3Oc3ccc(Cl)cc32)CC1,0.182%
7,O=C(Cn1nnc(-c2cc(Cl)ccc2-n2cnnn2)n1)N1CCCc2ccccc21,-14.9%
8,COc1ccc(CCNC(=O)C2CCN(C(=O)c3ccc(Br)cc3)CC2)cc1OC,12.5%
9,COc1cc(S(=O)(=O)NCc2ccccn2)ccc1Cl,10.7%
10,O=C(Cn1nnc(-c2ccc3c(c2)OCO3)n1)N1CCOCC1,13.6%
11,CC(C)(C)NC(=O)/C(=C/c1ccco1)c1ccccc1,6.71%
12,O=C(c1cccs1)N1CCN(Cc2ccccc2[N+](=O)[O-])CC1,4.37%
13,Cc1nc(-c2ccc(Br)cc2)ccc1C(=O)O,11.1%
14,O=C(NCCC1CCCCN1S(=O)(=O)c1ccc(Cl)cc1)C(=O)NCCN1CCOCC1 (stereo not drawn),13.5%
15,CCn1nc(C)c(CNC(=O)C2CCC(=O)N(Cc3ccc(Cl)cc3)C2)c1C (stereo not drawn),1.56%
16,CC1(c2ccccc2)NC(=O)N(CC(=O)Nc2ccc(S(N)(=O)=O)cc2)C1=O (stereo not drawn),9.91%
17,CC(c1ccccc1)N(C)CC(=O)NC(=O)NCCC1=CCCCC1 (stereo not drawn),3.07%
18,O=C(COC(=O)c1c[nH]c2ccccc12)Nc1cccc(F)c1,10.4%
19,O=c1[nH]cnc2scc(C3COc4ccccc4O3)c12 (stereo not drawn),7.82%
20,Cc1ccc(Nc2nc(N)nc(CN3CCN(Cc4ccccc4)CC3)n2)cc1Cl,-24.5%
21,COC(=O)c1cc(-c2cccc(OC)c2)n[nH]1,10.9%
22,O=C(N[C@@H](Cc1c[nH]c2ccccc12)C(=O)O)c1ccc(Cl)cc1,4.62%
